The values that follow come from ChEMBL document CHEMBL4888484, “Replenishing the malaria drug discovery pipeline: Screening and hit evaluation of the MMV Hit Generation Library 1 (HGL1) against asexual blood stage Plasmodium falciparum ,using a nano luciferase reporter read-out” (2022).

SMILES strings stand for the structures. Out of some 150,000 compounds screened, about 540 (0.36%) showed an effect of 50% or more. The list shows a part of the results.

For this assay, the system named is Plasmodium falciparum. In words: Primary screen in NF54 nanoGlo assay, in single point, at 2uM, 72h; a lower Z score goes with more inhibition. The assay is classed as functional, Erythrocyte. The following applies: timepoint 72 hour.
Consider `O=C(CCN1CCCCCC1=O)NCCNC(=O)c1ccc(F)cc1`, for which the “% Inhibition” value was -16% and the Z score worked out at 2.32.
On to `COc1ccc(S(=O)(=O)N2CCOCC2)cc1NC(=O)c1ccc2c(c1)C(=O)N(c1cc(C)ccc1C)C2=O`, for which the “% Inhibition” value is -4% and the Z score amounted to 0.72.
In the same order, the values of `Cn1c2c(cc(C(=O)N3CCC[C@H](c4cccc(C(=O)O)c4)C3)c1=O)CCCC2` are 5% and -0.76.
The corresponding values for `COc1ccc(C(=O)N2CCCC[C@H]2c2ccc(F)cc2)c(OCCN)c1` are -6% and 0.59.
The corresponding values for `O=C(C1CCC1)N1CC(Oc2nccs2)C1` are -5% and 0.67.
Turning to `CCCN(CC1CC1)C(=O)c1csc(NC(=O)c2cc(F)cc(F)c2)n1`, the “% Inhibition” value is on record as -13% and the Z score was 1.81.
Consider `CC1CC1C(NC(=O)C1CCNCC1)c1ccc(Cl)cc1` (centres undefined), for which the “% Inhibition” value is listed as -15% and the Z score came to 1.37.
Take `O=S1(=O)NC[C@H](O)CNC[C@@]2(COc3cc(-c4ccccc4)ccc31)C[C@@H](O)[C@@H](O)C2`: the “% Inhibition” value was -14% and the Z score worked out at 1.78.
For the compound `CCN1CCN(C(=O)c2cc3cc(NC(=O)c4cccc(F)c4)ccc3n2Cc2cccc(F)c2)CC1`, the “% Inhibition” value is 2% and the Z score is reported as -0.28.
In the same order, the values of `O=C(CCn1cnc2cc(-c3noc(-c4ccco4)n3)ccc21)N1CCOCC1` are -7% and 0.89.
As to `CC1(C)OC(=O)N(CC(=O)N2CCO[C@H](c3ccccc3)C2)C1=O`, the “% Inhibition” value is recorded as -4% and the Z score turned out to be 0.61.
For `CC(C)c1ccc(CN2C[C@@H]3C(=O)N(CCCN4CCCC4=O)C(=O)[C@@H]3C2)cc1`, the “% Inhibition” value is -9% and the Z score was 1.11.
For the compound `COCCN1C(=O)C[C@H](C(=O)N(C)CCc2nccs2)[C@H]1c1nccn1C`, the “% Inhibition” value is listed as -18% and the Z score is 2.18.
With `Cc1ccc(S(=O)(=O)Nc2cccc3c2CN(C(C)C)C3)o1`, the “% Inhibition” value is -9% and the Z score is reported as 1.37.
In the same order, the values of `Cc1cccc2cc(C(=O)N3CCC[C@]4(CCC(=O)N(C5CC5)C4)C3)n(C)c12` are -15% and 2.89.
Take `Cn1cncc1C(=O)N1CCOCC1C1CCCC1=O` (centres undefined): the “% Inhibition” value is given as -4% and the Z score came to 0.66.
As to `CN(Cc1ccncc1)C(=O)CNC(=O)Cc1c(F)cccc1F`, the “% Inhibition” value was -9% and the Z score is given as 1.21.
In the same order, the values of `COc1ccc(NC(=O)CC[C@H]2CCCN(C(=O)c3c[nH]c4ccccc34)C2)c(C)c1` are -4% and 0.63.
The corresponding values for `Cc1cc(N(C)Cc2cc(C)on2)n2ncnc2n1` are 5% and -0.87.
In the same order, the values of `O=C(CNC(=O)C1CCCCC1)N[C@H]1CCCc2ccccc21` are 12% and -1.43.
Take `CCc1c[nH]c2ncnc(N(C)Cc3nc(-c4cccs4)no3)c12`: the “% Inhibition” value is recorded as -9% and the Z score was 1.49.
With `CC(C)[C@@H]1CN(C)CCN1C(=O)c1cnn(-c2ccncc2)c1`, the “% Inhibition” value is -11% and the Z score came out at 2.07.
As to `CC(=O)N(C1CCOCC1)[C@H]1CCN(S(=O)(=O)c2ccc(F)c(F)c2)C1`, the “% Inhibition” value is reported as -10% and the Z score worked out at 1.68.
In the same order, the values of `c1ccc2c(-n3nc(C4CC4)nc3CCN3CCCO3)nccc2c1` are 11% and -1.57.
In the case of `OCC1CCN(c2nnnn2Cc2c(Cl)cccc2Cl)CC1`, the “% Inhibition” value is -5% and the Z score was determined as 0.83.
In the same order, the values of `COc1ccccc1C1CC1NC(=O)NCCC1CCCO1` (centres undefined) are -2% and 0.4.
On to `O=C(c1ccc(-c2cscn2)cc1)N1CCCCC1`, for which the “% Inhibition” value is listed as -11% and the Z score is 1.34.
The corresponding values for `C[C@@H](C(=O)N1CCCC1)n1ccc2ncccc2c1=O` are -8% and 1.37.
In the same order, the values of `Cc1nncn1CCN1C(=O)COc2cccnc21` are -23% and 2.7.
In the same order, the values of `Cc1cccc(Oc2cc(CNC(=O)N3CC[C@H](O)C(F)(F)C3)ccn2)c1C` are 0% and -0.02.
On to `Cc1ccc(N(C(=O)NC(=O)Nc2c(C)cc(C)cc2C)S(=O)(=O)c2ccccc2)cc1`, for which the “% Inhibition” value is -10% and the Z score is reported as 1.8.
In the same order, the values of `Cc1ccc(NCC(=O)Nc2nc(-c3ccccc3)cc(-c3ccccc3)n2)cc1` are -8% and 1.33.
`O=C(NCCc1ccccc1Oc1ccccc1)[C@H]1CCOC1`: the “% Inhibition” value was -21% and the Z score was determined as 2.12.
The corresponding values for `Cc1nn(C)c(Oc2cccnc2)c1CN1CCN(c2ccccc2)CC1` are -9% and 1.32.
For `CCC(C)c1cc(C(=O)N[C@H](C(=O)N2CCCC2)C(C)C)on1` (some centres undefined), the “% Inhibition” value is on record as -2% and the Z score is given as 0.46.
In the case of `CN1C(=O)C[C@H](C(=O)NCc2cccnc2N2CCOCC2)[C@H]1c1nccn1C`, the “% Inhibition” value turned out to be 2% and the Z score was -0.37.
As for `O=C(CCc1ccccc1)Nc1nc(-c2cccc3ccccc23)cs1`, the “% Inhibition” value is -4% and the Z score came out at 0.61.
The corresponding values for `C#CCCC1(CCC(=O)N2CCOC[C@H]2c2cccc(F)c2)N=N1` are -2% and 0.31.
For `CCc1nc2onc(C)c2c(=O)n1CC(=O)N(C)Cc1ccco1`, the “% Inhibition” value was found to be 5% and the Z score was -0.72.
In the same order, the values of `CC(C)O[C@H]1CN(CC(=O)NCCc2ccc(F)cc2)C[C@@H]1O` are -5% and 0.73.
In the same order, the values of `Cc1noc(C)c1CC(=O)N1CCC[C@H](C2OCCO2)C1` are -7% and 0.78.
On to `CNC(=O)NC(=O)CN[C@@H](Cc1ccc(F)cc1)C(C)C`, for which the “% Inhibition” value is -10% and the Z score is 1.05.
